In PubChem BioAssay AID504832 (National Center for Advancing Translational Sciences (NCATS), 2011):
Hit rate of the full screen: of about 310,000 compounds, about 18,000 (5.8%) were called active. The shares of active, inactive and inconclusive entries below differ from those in the screen. Calls come from the whole dose curve; as a rule, active = well fitted inhibition curve with a large enough effect; inconclusive = small, poorly fitted or top-dose-only effect, or another doubt; inactive = no such curve, though single readings can be large or run the other way. No potency is given beside an inconclusive call; the fits are too rough.

Assay: Primary qHTS for delayed death inhibitors of the malarial parasite plastid, 48 hour incubation
Conditions: P. falciparum luciferase growth in erythrocytes; series mostly up to 28.7 µM
Outline: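 A one-generation exposure of luciferase-tagged malaria parasites in RPMI 1640/Albumax erythrocyte culture, 37 C and 5% CO2. Inhibition is inferred from decreased luminescence after adding detection reagent.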
Potency is the fitted concentration of half-maximal effect; tags give direction and shape of the fitted curve.

Row | Structure (SMILES) | Potency
1 | CCOc1cc(CNCCO)cc(Br)c1OCc1ccc(Cl)cc1Cl | active: 8.28 µM
2 | O=C(Nc1cccc(-c2cn3c(n2)SCC3)c1)c1ccc(Br)o1 | inactive
3 | Cc1cccc(-n2ncc3c2CCCC3NC(=O)CCN2CCCCO2)c1C (stereo not given) | inconclusive [inhibitor, single point]
4 | Cc1ccc(NC(=O)Cn2nc(C(=O)O)c3ccccc3c2=O)c([N+](=O)[O-])c1 | inactive
5 | CC(C)CCSc1nnc(N)s1 | inconclusive [inhibitor, single point]
6 | CC(C)(C)OC(=O)[C@H](Cc1ccccc1)NC(=O)c1nc[nH]c1C(=O)NCc1ccccc1 | inactive
7 | Cc1cccc([C@@H]2[C@@H]3C(=O)N(Cc4ccccc4)C(=O)[C@@H]3[C@]3(C)C(=O)N(c4cccc(F)c4)C(=O)N23)c1 | active: 10.4 µM
8 | CCOc1ccc(S(=O)(=O)NCCC(=O)NCCCSc2ccccc2)cc1 | inconclusive [inhibitor, single point]
9 | C=CC[n+]1c(C)csc1Nc1ccc(C)cc1 | inactive
10 | CC(C)C(=O)Nc1cccc(NC(=O)CCN2C(=O)c3ccccc3S2(=O)=O)c1 | inconclusive [inhibitor, full curve, poor fit]
11 | Cc1nn(-c2ccccc2)c2nc(N)c(C#N)c(-c3ccc(F)cc3)c12 | active: 11.7 µM
12 | C=CCNC(=O)c1onc(CSc2ccc(Cl)cc2)c1C(=O)NCC=C | inconclusive [inhibitor, single point]
13 | CCc1cc2c(SCC(=O)N(C)C3CCS(=O)(=O)C3)ncnc2s1 (stereo not given) | inactive
14 | O=C(/C=C/c1ccoc1)c1ccccc1O | inactive
15 | Cc1cc(NCc2ccccn2)n2nc(C)c(-c3ccccc3)c2n1 | active: 1.65 µM
16 | OCC#CC[N+]1(CC#Cc2ccccc2)CCOCC1 | inactive
17 | CC(C)=CCC(C)(C)CNC(=O)NC1CCCCC1 | inconclusive [inhibitor, single point]
18 | COc1ccccc1-n1c(SCc2cc(=O)oc3cc(O)ccc23)nc2ccccc2c1=O | inconclusive [inhibitor, single point]
19 | CCCCCCSc1cc(-c2nc3cc(C)ccn3c2NCCCC)ccc1OC | active: 9.28 µM
20 | Nc1nc(N)c2c(n1)CCCC2 | inconclusive [inhibitor, single point]
21 | COc1ccc(N(CC(=O)Nc2cc(Cl)ccc2C)S(=O)(=O)c2c(C)noc2C)cc1 | inconclusive [inhibitor, partial curve, poor fit]
22 | CCn1c(=O)c(=O)[nH]c2cc(C(=O)NC3CCCc4ccccc43)ccc21 (stereo not given) | inconclusive [inhibitor, single point]
23 | O=C(N=C1SC2CS(=O)(=O)CC2N1Cc1ccc(Cl)cc1)C1CC1 (stereo not given) | inactive
24 | CCOc1ccccc1NC(=O)NNC(=O)CCc1ccc(OC)cc1 | inactive
25 | O=c1c(-c2nnc(SCc3ccc(Cl)c(Cl)c3)o2)cccn1Cc1ccccc1 | inconclusive [inhibitor, full curve]

Row | Structure (SMILES) | Potency
26 | Cc1csc2c(N3CCN(C(=O)Nc4ccc(OC(F)(F)F)cc4)CC3)ncnc12 | active: 1.47 µM
27 | Cc1ccc2cc3c(NC(=O)c4cccnc4)nn(C)c3nc2c1 | inconclusive [inhibitor, single point]
28 | CCO[C@H]1OC(C(=O)Nc2ccccc2)=C[C@@H](C2CC2)[C@@H]1CCCO | inconclusive [inhibitor, partial curve, poor fit]
29 | CCCCCOC(=O)C1=C(C)NC(=O)NC1c1ccc(N(C)C)cc1 (stereo not given) | inconclusive [inhibitor, single point]
30 | CC(C)Sc1nc(N)nc(-c2cccs2)c1C#N | inactive
31 | O=C(NC(=S)NCc1ccco1)c1cccc(Cl)c1 | inconclusive [inhibitor, partial curve, poor fit]
32 | N#Cc1c(N2CCOCC2)nc(N)c2c(N)nc3c(c12)CC(CCl)O3 (stereo not given) | inconclusive [inhibitor, full curve, poor fit]
33 | CCCCCCCCn1cnc2c(N)c(C)c(C)cc21 | inconclusive [inhibitor, single point]
34 | N#Cc1cccc(NCC(=O)Nc2cccc(S(=O)(=O)N3CCCCC3)c2)c1 | active: 13.1 µM
35 | COc1ccc(NC(=O)NC23CC4(C)CC(C)(CC(C)(C4)C2)C3)cc1OC | active: 2.62 µM
36 | CCCN(CCC)CCNC(=O)c1cc2c(=O)n(C)c3ccccc3c2n1C | inconclusive [inhibitor, partial curve, poor fit]
37 | CCOc1cc(C(=O)NC)cc(Br)c1OC | inactive
38 | C=CCNC(=S)N(Cc1ccccc1)Cc1ccc(F)cc1 | inconclusive [inhibitor, single point]
39 | O=C(CNC(=O)c1ccc(F)cc1)NCc1ccc(S(=O)(=O)N2CCOCC2)cc1 | inconclusive [inhibitor, single point]
40 | CCOC(=O)N1CCN(C(=O)CN(C)S(=O)(=O)c2ccc(Cl)cc2)CC1 | inactive
41 | COc1ccccc1C(=O)Nc1ccccn1 | inactive
42 | COc1cccc2cc(C(=O)C3=C(O)C(=O)N(CCN4CCOCC4)C3c3ccc(Cl)cc3)oc12 (stereo not given) | inconclusive [inhibitor, single point]
43 | Clc1cccc(OCCN2CCNCC2)c1 | inconclusive [inhibitor, partial curve, poor fit]
44 | CCc1ccc(-c2cc(C)no2)cc1S(=O)(=O)Nc1ccccn1 | inactive
45 | CC1(C)CC(=O)C(N=Nc2ccc(C(F)(F)F)cc2[N+](=O)[O-])=C(O)C1 | inconclusive [inhibitor, partial curve, poor fit]
46 | Cc1ccc(S(=O)(=O)N2CCN(C(=O)c3cc4c(s3)CCCC4)CC2)c(C)c1 | inconclusive [inhibitor, single point]
47 | O=C(C[n+]1cc2ccccc2c2ccccc21)c1ccccc1 | inactive
48 | OC1(c2ccccc2)CN(c2ccccc2)C2=[N+]1CCS2 (stereo not given) | inconclusive [inhibitor, single point]
49 | CNC(=O)c1ccc(Nc2nnc(-c3ccc(C(N)=O)cc3)c3ccccc23)cc1 | inconclusive [inhibitor, full curve, poor fit]
50 | OC[C@@H]1CCCN1Cc1cn(-c2ccccc2)nc1-c1ccc2c(c1)OCO2 | active: 13.1 µM

Row | Structure (SMILES) | Potency
51 | Cc1cc(C(=O)CSc2n[nH]c(N)n2)c(C)n1-c1ccccc1 | inactive
52 | CCOC(=O)c1cn(CC)c2cc(N3CCSCC3)c(F)cc2c1=O | active: 0.928 µM
53 | O=C(NCC1(c2ccccc2)CCCC1)c1ccc(Br)cc1 | inconclusive [inhibitor, partial curve, poor fit]
54 | COc1ccc(Cn2nnnc2C(c2ccc(F)cc2)N2CCN(C3CCCC3)CC2)cc1 (stereo not given) | inconclusive [inhibitor, partial curve]
55 | Cc1ccc(C(=O)/C=C/NCc2ccc(F)cc2)cc1 | inactive
56 | COc1ccc(-n2nnnc2SCC(=O)Nc2ccc3c(c2)OCCO3)c(OC)c1 | inactive
57 | Fc1ccccc1Cn1c2[n+](c3ccc(C(F)(F)F)cc31)CCCCC2 | inconclusive [inhibitor, full curve, poor fit]
58 | CC(C)C(=O)NNc1ccc(C(F)(F)F)cn1 | inconclusive [inhibitor, single point]
59 | O=C(CN(CCc1ccccc1)S(=O)(=O)c1ccc(Cl)cc1)N/N=C/c1ccccc1C(=O)O | inactive
60 | O=C(Nc1cccc(C(=O)N2CCCCCC2)c1)c1ccco1 | inactive
61 | Nc1cc(N)nc(SCc2cccc(F)c2)n1 | inactive
62 | Cc1ccc(S(=O)(=O)N2CCCN(C(=O)c3ccc(-n4nccc4C)cc3)CC2)cc1 | inconclusive [inhibitor, partial curve, poor fit]
63 | Cc1ccc2c(CSc3nnc4ccccn34)cc(=O)oc2c1C | inactive
64 | CC(C)Oc1ccc(CCC(=O)NNC(=S)NCc2ccccc2)cc1 | active: 1.65 µM
65 | O=C(CSc1nc(=O)n(CCCN2CCOCC2)c2c1CCCC2)Nc1ccc(Cl)cc1 | active: 13.1 µM
66 | COc1cccc(NC2=NC3(CCCCC3)N=C(N)N2)c1 | inconclusive [inhibitor, partial curve]
67 | O=C(O)c1cc2ccccc2cc1Nc1ccccc1 | inactive
68 | CN1C(=O)c2ccccc2Sc2ccc(NC(=O)NC3CC3)cc21 | inconclusive [inhibitor, single point]
69 | CCn1c(SC(C)C(=O)N2CCOCC2)nc2sc(C)c(C)c2c1=O (stereo not given) | inconclusive [inhibitor, single point]
70 | Cc1ccc(O)c(-c2cc(C(=O)NCc3ccncc3)[nH]n2)c1 | active: 2.94 µM
71 | Cc1ccc(NC(=O)C2CCCN2S(=O)(=O)c2ccc(-c3ccc(=O)[nH]n3)s2)c(C)c1 (stereo not given) | inconclusive [inhibitor, single point]
72 | O=C(COc1ccc(Cl)cc1)NNC(=S)NCc1ccccc1 | inconclusive [inhibitor, full curve, poor fit]
73 | CCN(CC)S(=O)(=O)c1ccc(/C=C/C(=O)Nc2cccc(F)c2)cc1 | inconclusive [inhibitor, single point]
74 | CCOC(=O)c1c(C)c(-c2ccccc2)n(CC(=O)NCCC(C)C)c1C | inconclusive [inhibitor, full curve]
75 | O=C(NC1CCCCC1)N(Cc1ccc(F)cc1)Cc1nc2ccccc2c(=O)[nH]1 | active: 10.4 µM
